About 60 (0.1%) of roughly 46,000 compounds were called active. Inconclusive results (about 3%) are left out. The call rests on the fitted dose curve; in most records, active means well fitted inhibition curve with a large enough effect; inconclusive means small, poorly fitted or top-dose-only effect; inactive means no such curve, though single readings can be large or run the other way. The list shows a part of the results.
Test: Primary qHTS assay for Inhibitors of ovarian cancer metastasis using an organotypic tumor microenvironment (TME) model. Further: nearly all actives have a fitted effect of over 65% in size.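 On activity change, negative = inhibition: plate controls were DMSO wells for no effect and tomatine positive control wells for full effect.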
Settings: SKOV3ip1-GFP adhesion/invasion on 3D omental model, fluorescence; series mostly up to 45.8 µM; activity change, negative = inhibition: at the top concentration
Procedure, shortened: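 qHTS, 4-pt dose (0.36-46 umol/L); SKOV3ip1-GFP, 1,200 cells/well, no FBS; primary omental fibroblast/mesothelial co-culture 48 h pre-grown; 2 h RT + 16 h 37 C; PBS wash, 4% PFA; GFP count 488/509 nm.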

| Compound | activity change, negative = inhibition | outcome |
| --- | --- | --- |
| COc1ccc(CNC(=O)C(C)N2Cc3ccccc3C2=O)cc1 (stereo not given) | inactive: 2.58% | – |
| CCn1ccc2cc(S(=O)(=O)N3CCCN(C(=O)Nc4ccc(C)c(F)c4)CC3)ccc21 | inactive: -1.6% | – |
| CC(C)(C)NC(=O)Nc1cccc(Nc2ncc(F)c(NC(C)(C)CO)n2)c1 | inactive: -2.68% | – |
| CCOc1ccc(NC(=O)c2cc3c(s2)-c2ccccc2OC3)cc1 | inactive: -4.96% | – |
| Cc1cccc(NC(=O)C(Cc2ccccc2)n2cccc2)c1C (stereo not given) | inactive: -0.933% | – |
| COc1cc(OC)c(NC(=O)N2CCc3c(sc4c3CCCC4)C2c2ccccc2)cc1Cl (stereo not given) | inactive: 1.6% | – |
| O=C(Nc1nnc(S(=O)(=O)N2CCCCCC2)s1)c1ccccc1Cl | inactive: 4.71% | – |
| Cc1ccc(CNC(=O)CCCN2C(=O)c3cccnc3Oc3ccc(Cl)cc32)cc1 | inactive: 2.63% | – |
| Cc1nc(-c2ccccc2)sc1CCNC(=O)C(=O)Nc1ccc2c(c1)OCCO2 | – | inactive |
| Cc1cccc(N2CCN(C(=O)Cn3cnc4sc(C)c(S(=O)(=O)N5CCN(c6ncccn6)CC5)c4c3=O)CC2C)c1 (stereo not given) | – | inactive |
| FC(F)(F)c1cccc(-c2nnn3c2nc(NC2CCCCC2)c2ccccc23)c1 | inactive: 10.9% | – |
| COc1ccccc1CCNC(=O)Cc1c(C)c2c(cc(C)c3c(C)c(C)oc32)oc1=O | inactive: 8.65% | – |
| CCC(C)NC(=O)C1CCN(C(=O)c2ccc(-n3ccc4ccccc43)s2)CC1 (stereo not given) | inactive: -2.05% | – |
| CCOC(=O)c1ccc(NC(=O)CSc2nccn2-c2ccc(OCC)cc2)cc1 | inactive: -3.38% | – |
| COc1ccccc1Cc1nc2ccccc2nc1SCC(=O)N1CCc2ccccc21 | – | inactive |
| COc1ccccc1N1CCN(c2ccc(-c3nc(-c4ccccc4C)no3)cc2[N+](=O)[O-])CC1 | inactive: 0.205% | – |
| Cc1cccc(-c2nc(CSCC(=O)N3CCN(c4ccccc4)CC3)c(C)o2)c1 | – | inactive |
| COc1cccc(NC(=O)C(=O)NCCc2csc(-c3ccc(C(F)(F)F)cc3)n2)c1 | – | inactive |
| CCOc1ccccc1CNC(=O)C1CCN(S(=O)(=O)c2c(C)noc2/C=C/c2ccc(C)cc2)CC1 | – | inactive |
| CCOc1ccc(CCNC(=O)c2cc(=O)[nH]c3ccc(S(=O)(=O)N4CCCCC4)cc23)cc1OCC | inactive: -5.73% | – |

| Compound | activity change, negative = inhibition | outcome |
| --- | --- | --- |
| COc1ccc(NC(=O)C(C)n2nnc3sc(-c4ccccc4)cc3c2=O)cc1Cl (stereo not given) | inactive: -19.1% | – |
| COc1cc([N+](=O)[O-])ccc1NC(=O)N1CCN(c2cc(-c3noc(C)n3)ccc2C)CC1 | inactive: -4.66% | – |
| S=P(N1CC1)(N1CC1)N1CC1 | inactive: -6.08% | – |
| O=C(Cc1ccc(F)cc1)NCc1nc2cccnc2n1Cc1ccc(F)cc1 | inactive: 19.3% | – |
| FC(F)(F)c1cccc(N2CCN(Cc3nnc(-c4ccc5c(c4)OCO5)o3)CC2)c1 | inactive: -11.1% | – |
| CCOC(=O)c1cccc(NC(=O)N2CCC(CN3CCc4ccccc4C3)CC2)c1 | – | inactive |
| Cc1ccccc1OCC(=O)Nc1ccc(OCc2cc(=O)n3ccsc3n2)cc1 | – | inactive |
| COc1cccc(-c2nc(SCC(=O)NCC3CCCO3)c(-c3ccc(F)cc3)[nH]2)c1 (stereo not given) | inactive: -2.86% | – |
| CCOC(=O)c1cccc(NC(=O)N2CC(CC)Sc3ccccc32)c1 (stereo not given) | inactive: -1.93% | – |
| CCCc1cc(=O)oc2cc(C)c3c(-c4cccc(OC)c4)coc3c12 | inactive: -5.46% | – |
| CC(C)(C)C1CCc2c(sc(NC(=O)CCC(=O)O)c2C(=O)Nc2ccccc2C(F)(F)F)C1 (stereo not given) | – | inactive |
| NS(=O)(=O)c1ccc(CCNC(=O)c2ccc3nc(Cc4ccccc4)oc3c2)cc1 | inactive: -3.8% | – |
| CC1CCCN(Cc2nc3c(c(=O)n(C)c(=O)n3C)n2Cc2ccc(Cl)cc2Cl)C1 (stereo not given) | inactive: 10.6% | – |
| Cc1ccccc1C(=O)Nc1ccc2nc(Nc3cccc(C(F)(F)F)c3)cc(C)c2c1 | – | inactive |
| COc1ccc(CCNC(=O)C2CCN(c3ncnc4c3nc3n4CCCCC3)CC2)c(OC)c1 | inactive: 15.7% | – |
| CCOc1ccc(S(=O)(=O)c2c[nH]c3ccccc3c2=O)cc1 | inactive: -32.7% | – |
| Cc1cc(C)cc(-n2nnc(-c3nsc(NC(=O)c4ccccc4Cl)n3)c2C)c1 | inactive: 3.89% | – |
| CCc1ccc(NC(=O)Cn2ncc3c(C)n(Cc4cccc(Cl)c4)c(C)c3c2=O)cc1 | – | inactive |
| CN(C)CCNC(=O)CN1C(=O)CCn2nc(-c3cn(C)c4ccccc34)cc21 | – | inactive |
| COc1cccc(CNC(=O)c2ccc(-c3nc(CS(=O)(=O)c4ccccc4)c(C)o3)cc2)c1 | inactive: 4.68% | – |

| Compound | activity change, negative = inhibition | outcome |
| --- | --- | --- |
| O=C(Nc1cc(Cl)cc2c1[nH]c1cnccc12)c1cccnc1 | inactive: -0.732% | – |
| COC(=O)c1ccc2c(=O)n(CCCCCC(=O)N3CCN(c4cc(Cl)ccc4C)CC3)c(=O)[nH]c2c1 | inactive: -24.3% | – |
| CCN(c1ccc(OC)cc1)S(=O)(=O)c1nnc(NC(=O)c2ccccc2C)s1 | – | inactive |
| CCC1CCCCN1C(=O)CSc1n[nH]c(-c2ccccc2Cl)n1 (stereo not given) | inactive: 2.96% | – |
| COc1ccc(CCNC(=O)c2cnc3sc(N4CCC(C)CC4)nn3c2=O)cc1OC | inactive: 13.5% | – |
| CC(=O)Nc1ccc(S(=O)(=O)NCc2ccc(C(=O)NCc3ccc(Cl)cc3)cc2)cc1 | inactive: 4.95% | – |
| O=C(Nc1ccc(C(F)(F)F)cc1)C1CCCN(S(=O)(=O)c2cccc3cccnc23)C1 (stereo not given) | inactive: -14.3% | – |
| COC(=O)c1cc2sccc2n1Cc1nc(-c2cccc(Br)c2)oc1C | inactive: 11% | – |
| O=C(Nc1cccc(C(=O)N2CCN(c3ccccc3F)CC2)c1)c1nsc2ccccc12 | inactive: 4.7% | – |
| CCCCCCc1cc2cc(-c3nnc(-c4ccc(C)cc4)o3)c(=O)oc2cc1O | inactive: 4.79% | – |
| CCc1cc2c(cc3c(=O)n(CC(=O)N4CCN(c5cc(Cl)ccc5C)CC4)nc(CC)n32)s1 | – | inactive |
| O=C(NCc1cccnc1)C(=O)NCC(c1cccnc1)N1CCN(c2ccccc2)CC1 (stereo not given) | inactive: 1.37% | – |
| CC(C)CCNc1nc2c(S(=O)(=O)c3ccc(Br)cc3)nnn2c2ccsc12 | – | inactive |
| CCc1ccc(NC(=O)CSc2nc(C)cc(COC)c2C#N)cc1 | inactive: 0.728% | – |
| CCc1ccc(-n2nc(C)c3c(C)cc(=O)n(CC(=O)NCc4ccc(C)cc4)c32)cc1 | inactive: 16.9% | – |
| CCOc1ccc(NC(=O)Cn2c(=O)n(CC3CCCO3)c(=O)c3ccccc32)cc1 (stereo not given) | – | inactive |
| COc1ccc2cc(C(=O)NCc3ccc4c(c3)CCN4C(=O)c3ccc(C)cc3)[nH]c2c1 | inactive: -2.1% | – |
| CCOc1ccc2nc(N3CCCC(C(=O)NCc4ccccc4Cl)C3)sc2c1 (stereo not given) | inactive: -26.5% | – |
| C=Cc1ccc(Cn2c(=O)n(-c3ccc(C)cc3)c(=O)c3c2c2cc(OC)ccc2n3C)cc1 | inactive: 24.2% | – |
| O=C(NCc1ccccc1)C1CCN(C(=O)c2cnn(-c3ccccc3)c2-n2cccc2)CC1 | – | inactive |

From PubChem BioAssay AID1963576 (National Center for Advancing Translational Sciences (NCATS), 2024)
